Data taken from the supplement of paper PMC4604168 (melanoma cell lines).
This is one part of the list. Single values are uncertain, as repeats are few or missing.

Legend:
Assay in all cases: cell count relative to DMSO control; melanoma cells; higher = more viable cells
Conditions in all cases: library dose: low library concentration; 72 h
MZ2-MEL = system: MZ2-MEL
MeWo = system: MeWo
RPMI7951 = system: RPMI7951
RVH-421 = system: RVH-421
SkMel28 = system: SkMel28
SkMel2 = system: SkMel2
SkMel30 = system: SkMel30
SkMel5 = system: SkMel5
UACC257 = system: UACC257
UACC62 = system: UACC62
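Also: cell number obtained by counting DAPI-stained nuclei in high-throughput microscope images with image analysis software, screen run in 1,536-well plates.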

Compound	cell count (MZ2-MEL) [%]	cell count (MeWo) [%]	cell count (RPMI7951) [%]	cell count (RVH-421) [%]	cell count (SkMel28) [%]	cell count (SkMel2) [%]	cell count (SkMel30) [%]	cell count (SkMel5) [%]	cell count (UACC257) [%]	cell count (UACC62) [%]
CN1CCN(c2ccc3nc(-c4c(N)c5c(F)cccc5[nH]c4=O)[nH]c3c2)CC1 [Dovitinib] + OCCn1cc(-c2cnc3nnn(Cc4ccc5ncccc5c4)c3n2)cn1 [PF04217903] (first compound 0.1 µM, partner dose 1 µM)	91.6	88.4	125	97.1	85.8	93.8	49.6	91.9	94.2	96.4
CN1CCN(c2ccc3nc(-c4c(N)c5c(F)cccc5[nH]c4=O)[nH]c3c2)CC1 [Dovitinib] + Oc1nc(-c2ccc(C(F)(F)F)cc2)nc2c1CSCC2 [XAV939] (first compound 0.1 µM, partner dose 2 µM)	92.9	90.1	97.2	79	80.5	97.2	93.6	84.3	91.8	78
CN1CCN(c2ccc3nc(-c4c(N)c5c(F)cccc5[nH]c4=O)[nH]c3c2)CC1 [Dovitinib] + O=C(CCCCCCC(=O)Nc1ccccc1)NO [vorinostat] (first compound 0.1 µM, partner dose 0.08 µM)	88.4	75.3	107	133	65.1	99.4	52.3	79.1	80.3	90.7
C[C@@H](Oc1cc(-c2cnn(C3CCNCC3)c2)cnc1N)c1c(Cl)ccc(F)c1Cl [Crizotinib] + N#Cc1c(O)c2c(-c3ccc(-c4ccccc4O)cc3)csc2[nH]c1=O [A769662] (first compound 0.2 µM, partner dose 2 µM)	90.9	88.3	123	105	105	96	115	102	95.4	104
C=CCNC1=C2C[C@@H](C)C[C@H](OC)[C@H](O)[C@@H](C)/C=C(\C)[C@H](OC(N)=O)[C@@H](OC)/C=C\C=C(/C)C(=O)NC(=CC1=O)C2=O [Tanespimycin] + O=C(Nc1ccccc1)c1cc([N+](=O)[O-])ccc1Cl [GW9662] (first compound 0.002 µM, partner dose 2 µM)	95.2	95.7	106	110	86.2	107	112	107	85.4	98.1
C[C@@H](Oc1cc(-c2cnn(C3CCNCC3)c2)cnc1N)c1c(Cl)ccc(F)c1Cl [Crizotinib] + Oc1cc(-c2nc(-c3ccccc3)[nH]c2-c2ccncc2)ccc1Cl [L779450] (first compound 0.2 µM, partner dose 0.2 µM)	80	77	84.5	153	76.8	94.2	90.3	95.4	97.8	68.2
C[C@@H](Oc1cc(-c2cnn(C3CCNCC3)c2)cnc1N)c1c(Cl)ccc(F)c1Cl [Crizotinib] + COC(=O)c1sccc1S(=O)(=O)Nc1ccc(Nc2ccccc2)cc1OC [GSK0660] (first compound 0.2 µM, partner dose 1 µM)	92.7	102	111	97.4	80.8	88.4	77.3	104	104	81.9
CNC(=O)c1cc(Oc2ccc(NC(=O)Nc3ccc(Cl)c(C(F)(F)F)c3)cc2)ccn1 [sorafenib] + CCCCCCCCCCCC1=C(O)C(=O)C=C(O)C1=O [Embelin] (first compound 0.4 µM, partner dose 1.2 µM)	103	102	87.7	81.9	109	97	112	105	104	110
CNC(=O)c1cc(Oc2ccc(NC(=O)Nc3ccc(Cl)c(C(F)(F)F)c3)cc2)ccn1 [sorafenib] + COc1cc(Nc2ncc(F)c(Nc3ccc4c(n3)NC(=O)C(C)(C)O4)n2)cc(OC)c1OC [Tamatinib] (first compound 0.4 µM, partner dose 0.4 µM)	93.5	91.4	67.6	121	91.7	91.2	87.7	84.9	77.7	82.2
C[C@@H](Oc1cc(-c2cnn(C3CCNCC3)c2)cnc1N)c1c(Cl)ccc(F)c1Cl [Crizotinib] + COc1cc2ncnc(Nc3ccc(Oc4ccccc4)cc3)c2cc1OC [SrcI1] (first compound 0.2 µM, partner dose 2 µM)	91.7	89	93	139	83.3	99.4	101	101	86.9	110
CN1CCN(c2ccc3nc(-c4c(N)c5c(F)cccc5[nH]c4=O)[nH]c3c2)CC1 [Dovitinib] + C[C@@H]1CCN(C(=O)CC#N)C[C@@H]1N(C)c1ncnc2[nH]ccc12 [CP690550] (first compound 0.1 µM, partner dose 1 µM)	90.9	92.2	106	104	94.7	96.3	115	94.4	105	96.5
CNC(=O)c1cc(Oc2ccc(NC(=O)Nc3ccc(Cl)c(C(F)(F)F)c3)cc2)ccn1 [sorafenib] + COc1cc2c(Oc3ccc4[nH]c(C)cc4c3F)ncnc2cc1OCCCN1CCCC1 [cediranib] (first compound 0.4 µM, partner dose 0.4 µM)	93.1	104	95.6	99.9	89.7	98.4	91	86.4	76.7	96.7
C=CCNC1=C2C[C@@H](C)C[C@H](OC)[C@H](O)[C@@H](C)/C=C(\C)[C@H](OC(N)=O)[C@@H](OC)/C=C\C=C(/C)C(=O)NC(=CC1=O)C2=O [Tanespimycin] + Cn1cc(/C=C2\C(=O)Nc3cccnc32)c2ccccc21 [GW441756] (first compound 0.002 µM, partner dose 0.4 µM)	99.4	102	82.8	98.5	86.8	122	104	75.8	65.9	102
C[C@@H](Oc1cc(-c2cnn(C3CCNCC3)c2)cnc1N)c1c(Cl)ccc(F)c1Cl [Crizotinib] + O=C1NC(=O)/C(=C/c2ccc(-c3ccc(F)cc3O)o2)S1 [AS252424] (first compound 0.2 µM, partner dose 1 µM)	102	92.7	108	128	101	87.2	104	96.6	116	89.7
C[C@@H](Oc1cc(-c2cnn(C3CCNCC3)c2)cnc1N)c1c(Cl)ccc(F)c1Cl [Crizotinib] + O=C(O)c1ccc(-c2c[nH]c3ncc(-c4ccccc4)cc23)cc1C1CCCC1 [GSK650394] (first compound 0.2 µM, partner dose 0.16 µM)	95	86	111	107	89.2	87.5	99	90.9	88.1	98.4
CN1CCN(c2ccc3nc(-c4c(N)c5c(F)cccc5[nH]c4=O)[nH]c3c2)CC1 [Dovitinib] + N#Cc1c(O)c2c(-c3ccc(-c4ccccc4O)cc3)csc2[nH]c1=O [A769662] (first compound 0.1 µM, partner dose 2 µM)	101	91.2	89.2	87	85.5	98.2	100	84.6	78.6	96.4
C[C@@H](Oc1cc(-c2cnn(C3CCNCC3)c2)cnc1N)c1c(Cl)ccc(F)c1Cl [Crizotinib] + CO[C@@H]1[C@H](N(C)C(=O)c2ccccc2)C[C@H]2O[C@]1(C)n1c3ccccc3c3c4c(c5c6ccccc6n2c5c31)C(=O)NC4 [Midostaurin] (first compound 0.2 µM, partner dose 0.08 µM)	95.7	85.7	82.6	77.8	101	78.8	113	83.2	70.6	90.4
C=CCNC1=C2C[C@@H](C)C[C@H](OC)[C@H](O)[C@@H](C)/C=C(\C)[C@H](OC(N)=O)[C@@H](OC)/C=C\C=C(/C)C(=O)NC(=CC1=O)C2=O [Tanespimycin] + COc1cc(Nc2ncc(F)c(Nc3ccc4c(n3)NC(=O)C(C)(C)O4)n2)cc(OC)c1OC [Tamatinib] (first compound 0.002 µM, partner dose 0.4 µM)	95.7	81.9	74.4	94.8	90.4	92.3	90.1	87.1	78	80.5
CS(=O)(=O)CCNCc1ccc(-c2ccc3ncnc(Nc4ccc(OCc5cccc(F)c5)c(Cl)c4)c3c2)o1 [lapatinib] + COc1ccc(COc2ccc(Cc3cnc(N)nc3N)cc2OC)cc1 [GW2580] (first compound 0.8 µM, partner dose 1 µM)	89.9	93.7	86.2	95	107	98.5	86.9	103	112	94.7
C[C@@H](Oc1cc(-c2cnn(C3CCNCC3)c2)cnc1N)c1c(Cl)ccc(F)c1Cl [Crizotinib] + OCCn1cc(-c2cnc3nnn(Cc4ccc5ncccc5c4)c3n2)cn1 [PF04217903] (first compound 0.2 µM, partner dose 1 µM)	98.1	85	97.6	106	82.9	92.8	83.2	89.5	78.7	88.3
